Laboratory results from article PMC9372040.
No constants are given. Whether binding was seen depends on the method and setting. For some assays here: In cells and extracts the contact can be indirect. Some binding calls cover weakened binding; strength is not graded here. For some assays here: Tags and fused reporters may be left off the sequences shown.

The chains behind the UniProt entries cited, without tags or fusion partners. Where a name states a change or a piece, a line headed by the entry shows the natural chain unless it says otherwise.
UniProt Q08775: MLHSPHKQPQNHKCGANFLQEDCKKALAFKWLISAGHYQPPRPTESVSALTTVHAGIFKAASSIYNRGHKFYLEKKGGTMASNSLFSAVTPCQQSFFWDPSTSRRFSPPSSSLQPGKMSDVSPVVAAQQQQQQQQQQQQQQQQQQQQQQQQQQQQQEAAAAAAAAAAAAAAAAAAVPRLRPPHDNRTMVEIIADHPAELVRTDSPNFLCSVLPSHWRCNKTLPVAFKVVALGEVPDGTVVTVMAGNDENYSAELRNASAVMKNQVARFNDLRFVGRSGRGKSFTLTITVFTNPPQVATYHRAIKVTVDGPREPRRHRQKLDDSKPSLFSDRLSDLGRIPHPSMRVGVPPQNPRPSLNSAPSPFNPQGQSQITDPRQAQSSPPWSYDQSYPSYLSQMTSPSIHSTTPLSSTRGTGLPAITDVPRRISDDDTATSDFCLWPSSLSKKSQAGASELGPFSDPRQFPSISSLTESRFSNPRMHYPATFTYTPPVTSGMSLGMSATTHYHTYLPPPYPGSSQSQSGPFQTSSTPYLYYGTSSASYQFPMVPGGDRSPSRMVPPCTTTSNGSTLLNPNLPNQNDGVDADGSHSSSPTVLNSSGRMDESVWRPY
UniProt Q3URK3: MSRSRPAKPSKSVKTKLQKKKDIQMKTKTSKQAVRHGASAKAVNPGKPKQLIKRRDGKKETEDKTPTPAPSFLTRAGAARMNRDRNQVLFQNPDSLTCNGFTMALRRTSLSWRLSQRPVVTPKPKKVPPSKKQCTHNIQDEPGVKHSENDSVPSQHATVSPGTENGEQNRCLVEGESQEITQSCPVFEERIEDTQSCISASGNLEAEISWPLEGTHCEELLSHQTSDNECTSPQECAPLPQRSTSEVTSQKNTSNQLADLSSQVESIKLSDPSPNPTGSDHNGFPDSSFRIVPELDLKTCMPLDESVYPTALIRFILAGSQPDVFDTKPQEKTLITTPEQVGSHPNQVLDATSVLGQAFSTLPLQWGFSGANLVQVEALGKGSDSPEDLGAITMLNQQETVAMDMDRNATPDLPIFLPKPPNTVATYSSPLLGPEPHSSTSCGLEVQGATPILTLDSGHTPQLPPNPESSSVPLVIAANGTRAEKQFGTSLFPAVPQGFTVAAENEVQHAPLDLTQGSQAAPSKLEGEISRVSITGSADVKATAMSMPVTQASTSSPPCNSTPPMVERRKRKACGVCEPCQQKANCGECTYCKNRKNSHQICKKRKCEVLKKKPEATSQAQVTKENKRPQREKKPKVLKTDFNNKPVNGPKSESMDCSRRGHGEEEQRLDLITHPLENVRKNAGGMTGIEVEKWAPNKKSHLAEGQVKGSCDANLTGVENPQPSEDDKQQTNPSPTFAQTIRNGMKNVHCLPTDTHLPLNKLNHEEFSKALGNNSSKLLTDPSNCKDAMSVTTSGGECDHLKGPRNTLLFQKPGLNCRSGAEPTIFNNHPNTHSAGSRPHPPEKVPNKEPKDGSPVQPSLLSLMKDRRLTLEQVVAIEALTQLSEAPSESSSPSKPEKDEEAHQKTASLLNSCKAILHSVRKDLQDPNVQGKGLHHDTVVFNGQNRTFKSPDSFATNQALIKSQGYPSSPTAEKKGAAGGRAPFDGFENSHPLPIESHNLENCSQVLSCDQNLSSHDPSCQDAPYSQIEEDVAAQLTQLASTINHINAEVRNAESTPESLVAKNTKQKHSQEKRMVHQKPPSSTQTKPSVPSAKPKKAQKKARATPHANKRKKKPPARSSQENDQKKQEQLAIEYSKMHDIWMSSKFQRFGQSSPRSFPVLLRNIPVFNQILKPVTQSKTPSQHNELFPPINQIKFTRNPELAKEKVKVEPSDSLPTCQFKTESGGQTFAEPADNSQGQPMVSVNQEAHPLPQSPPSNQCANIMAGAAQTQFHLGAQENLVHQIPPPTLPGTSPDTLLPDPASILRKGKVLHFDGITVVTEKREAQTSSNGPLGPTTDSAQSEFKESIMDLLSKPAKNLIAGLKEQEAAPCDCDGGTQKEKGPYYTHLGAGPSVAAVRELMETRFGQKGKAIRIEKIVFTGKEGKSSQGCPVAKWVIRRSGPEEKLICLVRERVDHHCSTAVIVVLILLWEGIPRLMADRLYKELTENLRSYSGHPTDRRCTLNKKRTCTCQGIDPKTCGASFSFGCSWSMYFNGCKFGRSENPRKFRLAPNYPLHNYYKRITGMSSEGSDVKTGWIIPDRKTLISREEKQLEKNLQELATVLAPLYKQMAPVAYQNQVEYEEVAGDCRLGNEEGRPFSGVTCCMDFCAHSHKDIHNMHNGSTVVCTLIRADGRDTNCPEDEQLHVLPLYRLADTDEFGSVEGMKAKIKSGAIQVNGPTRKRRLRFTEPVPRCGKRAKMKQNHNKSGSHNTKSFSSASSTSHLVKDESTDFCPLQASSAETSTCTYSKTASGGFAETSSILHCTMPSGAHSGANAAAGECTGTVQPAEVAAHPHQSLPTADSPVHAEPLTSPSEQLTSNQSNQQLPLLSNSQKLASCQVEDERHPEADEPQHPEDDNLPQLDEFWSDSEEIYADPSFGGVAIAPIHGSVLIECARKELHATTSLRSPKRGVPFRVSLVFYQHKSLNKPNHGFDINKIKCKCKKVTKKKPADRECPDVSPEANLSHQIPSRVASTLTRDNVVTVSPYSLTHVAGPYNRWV

Legend:
GST-RUNX2 = GST-RUNX2 (UniProt Q08775); assay: pull-down; purified GST or GST-RUNX2 incubated with purified Flag-TET2-CD in EBC buffer for 3-4 h at 4 °C; three washes with EBC buffer; SDS-PAGE; both purified
HA-RUNX2 = HA-RUNX2 (UniProt Q08775); assay: co-IP; HEK293T co-transfected with HA-RUNX2 and a Flag-TET construct; lysis after 48 h in EBC buffer (50 mM Tris pH 7.5, 120 mM NaCl, 0.5% NP-40); anti-Flag or anti-HA beads 3-4 h or overnight at 4 °C; five washes; immunoblot with HA and Flag antibodies

Row | Molecule | binding (GST-RUNX2) | binding (HA-RUNX2)
1 | Flag-TET2-CD (from UniProt Q4JK59 1042-1912) (domain or fragment) | binds | binds
2 | Flag-TET2-Nterm (domain or fragment, UniProt Q4JK59 1-1041) MEQDRTTHAEGTRLSPFLIAPPSPISHTEPLAVKLQNGSPLAERPHPEVNGDTKWQSSQSCYGISHMKGSQSSHESPHEDRGYSRCLQNGGIKRTVSEPSLSGLHPNKILKLDQKAKGESNIFEESQERNHGKSSRQPNVSGLSDNGEPVTSTTQESSGADAFPTRNYNGVEIQVLNEQEGEKGRSVTLLKNKIVLMPNGATVSAHSEENTRGELLEKTQCYPDCVSIAVQSTASHVNTPSSQAAIELSHEIPQPSLTSAQINFSQTSSLQLPPEPAAMVTKACDADNASKPAIVPGTCPFQKAEHQQKSALDIGPSRAENKTIQGSMELFAEEYYPSSDRNLQASHGSSEQYSKQKETNGAYFRQSSKFPKDSISPTTVTPPSQSLLAPRLVLQPPLEGKGALNDVALEEHHDYPNRSNRTLLREGKIDHQPKTSSSQSLNPSVHTPNPPLMLPEQHQNDCGSPSPEKSRKMSEYLMYYLPNHGHSGGLQEHSQYLMGHREQEIPKDANGKQTQGSVQAAPGWIELKAPNLHEALHQTKRKDISLHSVLHSQTGPVNQMSSKQSTGNVNMPGGFQRLPYLQKTAQPEQKAQMYQVQVNQGPSPGMGDQHLQFQKALYQECIPRTDPSSEAHPQAPSVPQYHFQQRVNPSSDKHLSQQATETQRLSGFLQHTPQTQASQTPASQNSNFPQICQQQQQQQLQRKNKEQMPQTFSHLQGSNDKQREGSCFGQIKVEESFCVGNQYSKSSNFQTHNNTQGGLEQVQNINKNFPYSKILTPNSSNLQILPSNDTHPACEREQALHPVGSKTSNLQNMQYFPNNVTPNQDVHRCFQEQAQKPQQASSLQGLKDRSQGESPAPPAEAAQQRYLVHNEAKALPVPEQGGSQTQTPPQKDTQKHAALRWLLLQKQEQQQTQQSQPGHNQMLRPIKTEPVSKPSSYRYPLSPPQENMSSRIKQEISSPSRDNGQPKSIIETMEQHLKQFQLKSLCDYKALTLKSQKHVKVPTDIQAAESENHARAAEPQATKSTDCSVLDDVSESDTPGE | – | no binding

Results, then the molecule that gave them:

Row | binding (GST-RUNX2) | binding (HA-RUNX2) | Molecule
3 | – | no binding | Flag-TET1-Nterm (from UniProt Q3URK3 1-1366) (domain or fragment)
4 | – | binds | Flag-TET1 (from UniProt Q3URK3 1-2039) (enzyme)
